Test results: the supplement of paper PMC8285479
Where a name gives a salt, the structure may show the parent alone. ± gives the standard deviation of the averaged measurements. The full ranking holds about 1,900 compounds; the median of “normalised cell viability (NPI; 0 = phenylarsine oxide control, 1 = DMSO control)” is about 1, and the lowest 2% start at about 0.039. The list shows a part of the results.

System: NCI-H1944
Assay: normalised cell viability (NPI; 0 = phenylarsine oxide control, 1 = DMSO control) (fraction of DMSO control); NCI-H1944 is a non-small cell lung cancer line; higher = more viable cells (less compound toxicity)
Details: 6 days
[1] = glucocorticoid arm: hydrocortisone 2.75 uM co-treatment, compound 1 µM
[2] = glucocorticoid arm: hydrocortisone 2.75 uM co-treatment, compound 5 µM
[3] = glucocorticoid arm: hydrocortisone 2.75 uM pre-treated 2 days and continued, compound 1 µM
[4] = glucocorticoid arm: hydrocortisone 2.75 uM pre-treated 2 days and continued, compound 5 µM
[5] = glucocorticoid arm: vehicle, compound 1 µM
[6] = glucocorticoid arm: vehicle, compound 5 µM
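Further: CTB read-out in 384-well plates, mean of triplicate wells, normalised per plate against 1 µM phenylarsine oxide and 0.1% DMSO, compounds added 24 h after seeding.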

O=C1NC(c2cccc([N+](=O)[O-])c2)=CCN1c1ccccc1O [Icilin]
normalised cell viability [1]: 0.9937 ± 0.0093 | normalised cell viability [2]: 0.991 ± 0.011 | normalised cell viability [3]: 0.9937 ± 0.0042 | normalised cell viability [4]: 0.966 ± 0.015 | normalised cell viability [5]: 0.978 ± 0.0036 | normalised cell viability [6]: 0.981 ± 0.0044

CN1CCN(C(=O)c2cc3cc(Cl)ccc3[nH]2)CC1
normalised cell viability [1]: 1.027 ± 0.0058 | normalised cell viability [2]: 1.023 ± 0.0058 | normalised cell viability [3]: 1.013 ± 0.0058 | normalised cell viability [4]: 1.03 ± 0.021 | normalised cell viability [5]: 1.007 ± 0.0058 | normalised cell viability [6]: 1.01 ± 0.01

CCCN(CC1CC1)c1nc(C)nc(Nc2c(Cl)cc(Cl)cc2Cl)c1Cl
normalised cell viability [1]: 1.02 ± 0.01 | normalised cell viability [2]: 1.043 ± 0.0058 | normalised cell viability [3]: 1.02 ± 0.021 | normalised cell viability [4]: 1.03 ± 0.021 | normalised cell viability [5]: 0.988 ± 0.0036 | normalised cell viability [6]: 0.9957 ± 0.0035

Cn1nnc2c(C(N)=O)ncn2c1=O [Temozolomide]
normalised cell viability [1]: 1.01 ± 0.01 | normalised cell viability [2]: 1.01 ± 0.017 | normalised cell viability [3]: 1.001 ± 0.0085 | normalised cell viability [4]: 1.02 ± 0.01 | normalised cell viability [5]: 1.003 ± 0.0058 | normalised cell viability [6]: 1.01

C[C@]12CC[C@H](O)CC1=CC[C@@H]1[C@@H]2CC[C@]2(C)C(c3cccnc3)=CC[C@@H]12 [Abiraterone]
normalised cell viability [1]: 1.043 ± 0.0058 | normalised cell viability [2]: 1.18 ± 0.023 | normalised cell viability [3]: 1.05 | normalised cell viability [4]: 1.11 ± 0.025 | normalised cell viability [5]: 0.848 ± 0.021 | normalised cell viability [6]: 1.05 ± 0.011

C=C1C(=O)O[C@H]2[C@H]1CC/C(C)=C/CC[C@@]1(C)O[C@@H]21 [Parthenolide]
normalised cell viability [1]: 1.02 ± 0.011 | normalised cell viability [2]: 1.04 ± 0.032 | normalised cell viability [3]: 1.02 ± 0.021 | normalised cell viability [4]: 1.07 ± 0.064 | normalised cell viability [5]: 1.01 | normalised cell viability [6]: 0.785 ± 0.08

Nc1nc(N)c2nc(-c3ccccc3)c(N)nc2n1 [Triamterene]
normalised cell viability [1]: 1.01 | normalised cell viability [2]: 0.997 ± 0.02 | normalised cell viability [3]: 1.01 ± 0.024 | normalised cell viability [4]: 1.03 ± 0.01 | normalised cell viability [5]: 1.017 ± 0.0058 | normalised cell viability [6]: 1.003 ± 0.0058

Cc1ccc(C(=O)Cn2c3c(sc2=N)CCCC3)cc1 [Pifithrin-α]
normalised cell viability [1]: 1.027 ± 0.0058 | normalised cell viability [2]: 1.1 ± 0.015 | normalised cell viability [3]: 1.02 ± 0.011 | normalised cell viability [4]: 1.07 ± 0.011 | normalised cell viability [5]: 1.007 ± 0.0058 | normalised cell viability [6]: 1.023 ± 0.0058

CC(C)(C)NC(=O)[C@H]1CC[C@H]2[C@@H]3CC[C@H]4NC(=O)C=C[C@]4(C)[C@H]3CC[C@]12C [Finasteride]
normalised cell viability [1]: 0.991 ± 0.005 | normalised cell viability [2]: 1.01 ± 0.014 | normalised cell viability [3]: 0.9953 ± 0.0031 | normalised cell viability [4]: 1 ± 0.015 | normalised cell viability [5]: 1 ± 0.017 | normalised cell viability [6]: 1.03 ± 0.044

C=CC[N+]1([C@H]2C[C@H]3[C@@H]4CC[C@H]5C[C@H](O)[C@@H](N6CCOCC6)C[C@]5(C)[C@H]4CC[C@]3(C)[C@H]2OC(C)=O)CCCC1 [Rocuronium Bromide]
normalised cell viability [1]: 1.02 ± 0.01 | normalised cell viability [2]: 1.03 ± 0.025 | normalised cell viability [3]: 1.03 ± 0.011 | normalised cell viability [4]: 1.03 ± 0.01 | normalised cell viability [5]: 0.9947 ± 0.0059 | normalised cell viability [6]: 0.9973 ± 0.0031

C[C@H](O)[C@H](O)[C@H]1CNc2nc(N)[nH]c(=O)c2N1 [(6R)-5,6,7,8-Tetrahydro-L-biopterin dihydrochloride]
normalised cell viability [1]: 1.02 ± 0.011 | normalised cell viability [2]: 1.01 ± 0.026 | normalised cell viability [3]: 0.923 ± 0.18 | normalised cell viability [4]: 1.001 ± 0.009 | normalised cell viability [5]: 1.02 ± 0.01 | normalised cell viability [6]: 1.02

Cn1cnc(=N)c2[nH]cnc21 [3-Methyladenine]
normalised cell viability [1]: 1 ± 0.014 | normalised cell viability [2]: 1.01 ± 0.014 | normalised cell viability [3]: 0.9967 ± 0.0015 | normalised cell viability [4]: 1.01 ± 0.01 | normalised cell viability [5]: 1.001 ± 0.0081 | normalised cell viability [6]: 1 ± 0.016

Nc1ncnc2c1ncn2[C@@H]1O[C@@H]2COP(=O)(O)O[C@H]2[C@H]1O [Adenosine 3',5'-cyclic monophosphate]
normalised cell viability [1]: 0.986 ± 0.014 | normalised cell viability [2]: 0.9813 ± 0.007 | normalised cell viability [3]: 0.998 ± 0.011 | normalised cell viability [4]: 0.965 ± 0.019 | normalised cell viability [5]: 0.991 ± 0.016 | normalised cell viability [6]: 0.9797 ± 0.0074

CC(C)C(=O)c1c(C(C)C)nn2ccccc12 [Ibudilast]
normalised cell viability [1]: 1.017 ± 0.0058 | normalised cell viability [2]: 0.984 ± 0.02 | normalised cell viability [3]: 1.01 ± 0.015 | normalised cell viability [4]: 0.997 ± 0.024 | normalised cell viability [5]: 1.013 ± 0.0058 | normalised cell viability [6]: 1.013 ± 0.0058

CC(CN(C)C)CN1c2ccccc2CCc2ccccc21 (stereo unspecified) [Trimipramine maleate]
normalised cell viability [1]: 0.9743 ± 0.0072 | normalised cell viability [2]: 0.928 ± 0.015 | normalised cell viability [3]: 0.801 ± 0.34 | normalised cell viability [4]: 1.01 ± 0.01 | normalised cell viability [5]: 0.9953 ± 0.0064 | normalised cell viability [6]: 0.993 ± 0.0066

COC(=O)[C@H]1[C@H]2C[C@H]3c4[nH]c5ccccc5c4CCN3C[C@H]2CC[C@@H]1O [Rauwolscine hydrochloride]
normalised cell viability [1]: 0.9973 ± 0.0038 | normalised cell viability [2]: 1.01 ± 0.011 | normalised cell viability [3]: 0.897 ± 0.18 | normalised cell viability [4]: 0.998 ± 0.013 | normalised cell viability [5]: 0.9967 ± 0.0011 | normalised cell viability [6]: 0.9827 ± 0.0083

COC(=O)C(C)(N)Cc1ccc(O)cc1 (racemic) [alpha-Methyl-DL-tyrosine methyl ester hydrochloride]
normalised cell viability [1]: 1.004 ± 0.01 | normalised cell viability [2]: 1.01 ± 0.034 | normalised cell viability [3]: 1.01 ± 0.023 | normalised cell viability [4]: 0.999 ± 0.011 | normalised cell viability [5]: 0.9943 ± 0.0057 | normalised cell viability [6]: 1.004 ± 0.0098

CC(C)NCC(O)COc1cccc2[nH]ccc12 (stereo unspecified) [Pindolol]
normalised cell viability [1]: 1 | normalised cell viability [2]: 1 ± 0.013 | normalised cell viability [3]: 0.9967 ± 0.0023 | normalised cell viability [4]: 1.03 ± 0.021 | normalised cell viability [5]: 1.01 | normalised cell viability [6]: 1.02 ± 0.021

O=C(Nc1ccc([N+](=O)[O-])cc1Cl)c1cc(Cl)ccc1O [Niclosamide]
normalised cell viability [1]: 1.013 ± 0.0058 | normalised cell viability [2]: 1.03 ± 0.02 | normalised cell viability [3]: 1.017 ± 0.0058 | normalised cell viability [4]: 0.901 ± 0.22 | normalised cell viability [5]: 1.007 ± 0.0058 | normalised cell viability [6]: 1.01 ± 0.015

Cc1cc(C)nc(NS(=O)(=O)c2ccc(NC(=S)NC(=O)COc3ccc(Br)cc3Cl)cc2)n1
normalised cell viability [1]: 1.01 ± 0.016 | normalised cell viability [2]: 1.04 ± 0.015 | normalised cell viability [3]: 1.02 ± 0.011 | normalised cell viability [4]: 1.03 ± 0.01 | normalised cell viability [5]: 1.01 ± 0.01 | normalised cell viability [6]: 1.01 ± 0.013

C#C[C@]1(O)CC[C@H]2[C@@H]3CCC4=Cc5oncc5C[C@]4(C)[C@H]3CC[C@@]21C [Danazol]
normalised cell viability [1]: 0.998 ± 0.001 | normalised cell viability [2]: 1 ± 0.021 | normalised cell viability [3]: 0.991 ± 0.022 | normalised cell viability [4]: 1.01 ± 0.027 | normalised cell viability [5]: 1.007 ± 0.0058 | normalised cell viability [6]: 1.013 ± 0.0058

CC12CC3CC(C)(C1)CC(N)(C3)C2 [Memantine HCl]
normalised cell viability [1]: 1.01 ± 0.011 | normalised cell viability [2]: 1.003 ± 0.0058 | normalised cell viability [3]: 1.03 ± 0.015 | normalised cell viability [4]: 1 ± 0.013 | normalised cell viability [5]: 1.01 | normalised cell viability [6]: 0.993 ± 0.0066

CC12CC3CC(C)(C1)CC(N)(C3)C2 [Memantine hydrochloride]
normalised cell viability [1]: 1.01 ± 0.011 | normalised cell viability [2]: 1.03 ± 0.038 | normalised cell viability [3]: 1.01 ± 0.01 | normalised cell viability [4]: 1.1 ± 0.082 | normalised cell viability [5]: 0.9993 ± 0.0011 | normalised cell viability [6]: 1.01 ± 0.01

N#Cc1c(Oc2ccc(F)c(NC(=O)Cc3cccc(C(F)(F)F)c3)c2)ccc2nc(NC(=O)C3CC3)sc12
normalised cell viability [1]: 1.02 ± 0.01 | normalised cell viability [2]: 0.992 ± 0.014 | normalised cell viability [3]: 1.02 | normalised cell viability [4]: 0.999 ± 0.018 | normalised cell viability [5]: 1.01 ± 0.011 | normalised cell viability [6]: 0.9933 ± 0.0083

CO[C@H]1C[C@@H]2CC[C@@H](C)[C@@](O)(O2)C(=O)C(=O)N2CCCC[C@H]2C(=O)O[C@H]([C@H](C)C[C@@H]2CC[C@@H](OC(=O)C(C)(CO)CO)[C@H](OC)C2)CC(=O)[C@H](C)/C=C(\C)[C@@H](O)[C@@H](OC)C(=O)[C@H](C)C[C@H](C)/C=C/C=C/C=C/1C [CCI-779; Temsirolimus]
normalised cell viability [1]: 0.868 ± 0.026 | normalised cell viability [2]: 0.756 ± 0.029 | normalised cell viability [3]: 0.915 ± 0.021 | normalised cell viability [4]: 0.832 ± 0.036 | normalised cell viability [5]: 0.79 ± 0.015 | normalised cell viability [6]: 0.697 ± 0.045

CO[C@H]1C[C@@H]2CC[C@@H](C)[C@@](O)(O2)C(=O)C(=O)N2CCCC[C@H]2C(=O)O[C@H]([C@H](C)C[C@@H]2CC[C@@H](OC(=O)C(C)(CO)CO)[C@H](OC)C2)CC(=O)[C@H](C)/C=C(\C)[C@@H](O)[C@@H](OC)C(=O)[C@H](C)C[C@H](C)/C=C/C=C/C=C/1C [Temsirolimus (Torisel)]
normalised cell viability [1]: 0.804 ± 0.039 | normalised cell viability [2]: 0.744 ± 0.011 | normalised cell viability [3]: 0.841 ± 0.021 | normalised cell viability [4]: 0.813 ± 0.05 | normalised cell viability [5]: 0.722 ± 0.046 | normalised cell viability [6]: 0.671 ± 0.0097
